# From ChEMBL document CHEMBL4888484, “Replenishing the malaria drug discovery pipeline: Screening and hit evaluation of the MMV Hit Generation Library 1 (HGL1) against asexual blood stage Plasmodium falciparum ,using a nano luciferase reporter read-out” (2022)
# Out of some 150,000 compounds screened, about 540 (0.36%) showed an effect of 50% or more. This is one part of the list.
# System: Plasmodium falciparum
# Test: Primary screen in NF54 nanoGlo assay, in single point, at 2uM, 72h; a lower Z score goes with more inhibition
# Type: functional, Erythrocyte
# Details: timepoint 72 hour
Compound,% Inhibition [%],Z score
Cc1cc(C(=O)N2CCOC3(CCS(=O)(=O)CC3)C2)c(C)s1,-13,1.28
CO[C@H]1CCC[C@@H]1Nc1ccnc(N[C@H]2CCC[C@@H]2OC)n1,23,-2.91
O=C1CCCCCN1CCC(=O)N(Cc1ccc(-c2ccccc2)cc1)C[C@H]1CCCO1,-24,2.38
O=C1c2c(nc3ccccc3c2-c2ccccc2)CN1c1ccccc1,-35,4.16
CN(CCn1cnnc1)C(=O)Nc1cccc(C#Cc2ccccc2)c1,2,-0.3
CCC(CC)N(CCOC)C(=O)Nc1ccc(C)c(NC(=O)N(CCOC)C(CC)CC)c1,14,-1.49
Cn1nnc2c(N3CC(Cc4cccc(C(F)(F)F)c4)C3)ncnc21,-3,0.56
Cc1cccc(-c2nc(CN3C[C@H]4CC[C@@H](C3)N(Cc3cscn3)C4=O)c(C)o2)c1,-9,0.82
CCCC(=O)Nc1nnc(-c2cc3cccc(OC)c3o2)o1,-16,1.84
Cc1nc(CNC(=O)c2cccc(S(=O)(=O)N3CC[C@@H](O)C3)c2)cs1,0,-0.06
Cc1ccc(N2C[C@@H](C(=O)N3CCC(c4c[nH]c5ccccc45)(c4c[nH]c5ccccc45)CC3)CC2=O)c(C)c1,1,-0.17
COc1ccc(CC(=O)Nc2c(C(=O)N3CCC(N4CCCCC4)CC3)oc3ccccc23)cc1,-7,0.73
COc1cccc([C@H]2CCN(c3ncnc4c3CCNC4)C2)c1OC,-19,1.88
Cc1cccc(CN(Cc2nc(C(=O)NCc3ccccc3)co2)C(C)C)c1,-7,0.98
CC(C)(CNC(=O)N1CCCCC[C@H]1c1cccc(F)c1)N1CCOCC1,8,-0.96
COCCN(C)CC(=O)N1CC[C@@]2(CCCN(CC3CCC3)C2=O)C1,-5,1.09
Cc1[nH]nc(O)c1[C@H](CC(N)=O)C1=Cc2ccccc2OC1,26,-2.97
C=C(C)CN1CCC(N[C@@H](C)c2ccnc(C)n2)CC1,-3,0.35
Cc1c(Cl)cccc1S(=O)(=O)N1[C@H]2CCNC[C@@H]1CC2,-2,0.3
CCc1nc(C(C)C)ccc1C(=O)NCCc1cc(C)no1,-4,0.72
O=C(NC1CCCCC1)N1CCC[C@H]1c1nc(CCOCC2CC2)no1,-1,0.27
Cc1ccc(-c2cc3c(=O)[nH]ccn3n2)cc1C,-11,1.08
O=C(COc1ccccc1Cl)N1CCC[C@H]1c1nc2ccccc2s1,-10,1.96
CN1OCC(S(=O)(=O)N2CCN(Cc3ccccc3)CC2)C1c1cc(F)ccc1F (stereo unspecified),0,-0.05
O=C(CCc1cc2n(n1)CCN(C(=O)[C@@H](O)c1ccccc1)C2)NCCO,-11,1.37
Cn1ccnc1[C@H]1CCN(S(=O)(=O)CCC2CCCC2)C1,-8,0.92
CC1CCCC(NC(=O)c2ccc(CN3C(=O)CCn4nccc43)cc2)C1C (stereo unspecified),-3,0.52

Compound,% Inhibition [%],Z score
Cc1nc(C)c(F)c(N(C)CCc2ncccn2)n1,-14,3.05
Cc1cnc(C(=O)N[C@H]2CCCN(c3ccc(C#N)cc3F)C2)cn1,4,-0.67
CCN(Cc1nc(-c2ccccc2)cs1)CC1CCN(C2CCN(C)CC2)CC1,13,-1.74
C1CCc2nnc([C@H]3CC34CCN(Cc3nc(C5CC5)no3)CC4)n2CC1,-17,2.67
COc1ccc(CNC(=O)CCn2nnc3cc(S(=O)(=O)N4CCCC4)ccc32)cc1,-18,1.78
CC(C)C(=O)N1CC(C)(C)c2cc(S(=O)(=O)NC3CCCC3)ccc21,-4,0.53
CCC(=O)[C@@H]1CCCCN1C(=O)Cc1ccc(C)nc1,-8,1.19
Cc1nc2c(s1)CCC[C@@H]2Nc1nccnc1C#N,-3,0.45
CC(C)CC[C@@]1(C2CC2)NC(=O)N(Cc2ccc(C#N)cn2)C1=O,-14,2.83
Cc1c(C2CCN(C(=O)c3ccccc3Br)CC2)noc1N,-1,0.22
C#CC(C)NC(=O)c1cn(CC2CCCN2C(=O)OC(C)(C)C)nn1 (stereo unspecified),0,-0.01
COC(=O)c1cnc(NC(=O)c2ccnn2CC(C)C)c(O)c1,-7,0.87
O=C(NC1CCCCC1)[C@@H]1Cc2[nH]cnc2CN1Cc1cc2ccccc2o1,1,-0.12
CC(=O)Nc1ccc(NC(C)(C)C)cc1,-40,4.72
COC[C@@]1(CNS(=O)(=O)c2ccc(F)cc2)C[C@@H](O)[C@@H](O)C1,-2,0.25
Cc1nc2c(c(N3CCC(NC(=O)NCc4ccc(F)cc4)CC3)n1)CCCC2,-11,1.39
CCC(CC)N(Cc1ccc2c(c1)OCO2)C(=O)c1ccncc1,-2,0.37
OCC1(CCCc2ccccc2)CCN(Cc2cc(F)ccc2F)CC1,-16,2.15
CCc1nnc(CN(C)CCc2ccncc2)n1C,-1,0.13
COCCNS(=O)(=O)c1cc(CN2C(=O)C3CCCCC3C2=O)ccc1C (stereo unspecified),-10,1.3
C=CCN(Cc1ccc(F)cc1)C(=O)c1ccc(CCN2CCCC2)nc1,-9,1.18
Cc1cc(C)nc(NC(=O)CC(C)C)c1,-5,0.86
O=C(Nc1cc(Cl)ccc1Cl)c1cc2c(ccc3ccccc32)o1,0,0.03
CCOc1ccc(NC(=O)c2sc3nc(C)cc(C)c3c2C)cc1S(=O)(=O)N1CCCCC1,-15,2.39
CN1CCN([C@H]2COC[C@@H]2NC(=O)C2CCCC2)CC1,-5,0.86
CCCN(CCN1CCN(CC)CC1)C(=O)c1scc(C)c1Cl,-7,1.11
